Consider 61 compounds from PubChem BioAssay AID485344 (National Center for Advancing Translational Sciences (NCATS), 2010).

In all, about 340,000 compounds went through this assay and about 6,900 (2%) were called active. No stated cut-off is given here; in the data, active means inhibition above about 30%; inactive means below that, where a call was filed. Only a part is listed here, and it is no random draw. Where no call is shown, the source filed none.

Sequence of UniProt P14416 (P14416 whole entry, looked up): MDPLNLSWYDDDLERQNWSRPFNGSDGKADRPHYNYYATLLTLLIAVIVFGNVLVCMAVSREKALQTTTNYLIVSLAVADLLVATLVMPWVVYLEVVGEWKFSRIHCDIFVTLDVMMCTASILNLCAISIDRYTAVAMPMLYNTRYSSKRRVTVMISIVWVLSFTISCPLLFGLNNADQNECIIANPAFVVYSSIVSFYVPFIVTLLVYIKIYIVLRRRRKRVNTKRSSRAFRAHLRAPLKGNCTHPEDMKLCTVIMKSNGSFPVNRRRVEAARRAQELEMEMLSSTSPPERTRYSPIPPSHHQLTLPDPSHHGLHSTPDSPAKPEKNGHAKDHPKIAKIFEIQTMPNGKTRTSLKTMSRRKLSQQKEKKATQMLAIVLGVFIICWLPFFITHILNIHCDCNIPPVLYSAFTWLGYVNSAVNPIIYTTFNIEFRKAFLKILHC

The target of the experiment is D(2) dopamine receptor (Homo sapiens) (UniProt P14416). The experiment can be described thus: HTS Assay for Allosteric Antagonists of the Human D2 Dopamine Receptor: Primary Screen for Antagonists. Further: 0% is about no effect. The following applies: HEK293 TREx D2 cells, calcium flux, dopamine EC80; at 10 µM; stronger effect = higher value. Put shortly:
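In this primary screen, negative modulation is detected by tracking calcium flux after an EC80 dopamine challenge in inducible HEK293 T-REx D2 cells preexposed to test compound for 180 s.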
For `CCCCn1cc(S(=O)(=O)c2ccc(OC)cc2)c(=O)c2cc(F)c(F)cc21`, the inhibition came to 5.31%.

Turning to `Clc1cccc(-c2csc(-c3nc(-c4ccc(Br)s4)cs3)n2)c1`, the inhibition is 0.518%.

For the compound `CCOc1ccc(NC(=O)c2cc(S(=O)(=O)NC3CCCC3)ccc2F)cc1`, the inhibition was -4.54%. In the case of `CCc1ccc(NC(=O)CSc2nc(-c3ccccc3)c(C#N)c(=O)[nH]2)cc1` it was 13.9%; in that of `C=CCn1c(=S)[nH]c2scc(-c3ccc(C)o3)c2c1=O`, active: 31.8%; in that of `COc1ccc2c(c1)CCc1c(C(=O)Nc3ccccc3C(F)(F)F)noc1-2`, 3.71%.

On to `O=C(CC1N=C2c3ccccc3N=C(SCc3ccc(F)cc3)N2C1=O)NCc1cccs1` (stereo unspecified), for which the inhibition is -22.2%. As for `CCOC(=O)c1scc(-c2ccc(C)cc2)c1S(=O)(=O)Nc1cc(Cl)ccc1OC`, the figure is -15.7%; as for `CCn1c(SCC(=O)c2ccc([N+](=O)[O-])cc2)nnc1-c1ccc(Cl)cc1`, -5.98%; as for `COc1cccc(CNC(=O)Cn2cc3c(n2)-c2c(oc(C(=O)N4CCCC4)c2C)CC3)c1`, -10.4%. Turning to `CCOC(=O)C1=C(CN2CCN(CC)CC2)NC(=O)NC1c1ccc(Cl)cc1` (stereo unspecified), the inhibition was found to be 9.8%. Take `Cc1cc(C(=O)NCc2ccccc2C)c2c(C)nn(-c3cccc(F)c3)c2n1`: the inhibition is -7.74%. Turning to `CCCCCCn1c(CNC(=O)c2ccccc2)nc2ccccc21`, the inhibition was determined as 2.01%. Take `Cc1ccc(OCc2nc(-c3ccc(C(=O)N4CCN(c5ccc(Cl)cc5)CC4)cc3)oc2C)cc1`: the inhibition was -2.83%. As for `O=C(CCN1CCN(c2ccccc2)CC1)N/N=C/c1ccccc1O`, the inhibition was active: 91.3%. Turning to `CC(C)Oc1ccc(CNC(=O)Cn2c(=O)oc3ccccc32)cc1`, the inhibition was 19.8%. For `CC(C)CCNC(=O)CSc1c2c(nc3ccc(Cl)cc13)CCCC2`, the inhibition came to 9.51%. In the case of `CCOc1ccc(CNC(=O)C2CCCN(S(=O)(=O)c3ccc4c(c3)CCCC(=O)N4)C2)cc1` (stereo unspecified) it was 4.2%; in that of `Cc1nn(Cc2ccc(Cl)cc2)c(C)c1NC(=O)c1noc2c1CCc1ccccc1-2`, 8.61%.

With `COC(=O)c1ccc(-n2c(/C=C\c3cccc(Br)c3)nc3ccccc3c2=O)cc1`, the inhibition was -19.3%. As for `CCc1nc2ccccc2n1CCCCOc1ccccc1C`, the inhibition is -2.61%. Consider `Cc1ccc(S(=O)(=O)C(CNC(=O)C(=O)NCCc2ccccc2)c2ccco2)cc1` (stereo unspecified), for which the inhibition was 7.52%.

With `Cc1ccc2c(c1)NC(=O)C(CC(=O)NCCCN1CCN(c3cc(Cl)ccc3C)CC1)O2` (stereo unspecified), the inhibition was active: 52.9%.

For the compound `CCCn1c(SCC(O)c2cccc(OC)c2)nc2ccccc21` (stereo unspecified), the inhibition is -9.59%. As to `O=C(Nc1ccc(N2CCN(CCOc3ccc(Cl)cc3)CC2)c(C(=O)O)c1)c1ccc(F)cc1`, the inhibition is -10.8%. For `COc1ccc(CNC(=O)c2nnn(CC(=O)Nc3cc(C)cc(C)c3)c2N)cc1`, the inhibition was -19.6%. Take `COc1ccccc1C(=O)NC1(C(F)(F)F)C(=O)Nc2c1c(=O)[nH]c(=O)n2CCc1ccccc1` (stereo unspecified): the inhibition was 11.5%. For `Cc1ccc(C)c(CN2CCCN(Cc3cc(C)ccc3C)S2(=O)=O)c1`, the inhibition is -13.7%. As to `COc1ccc(CNC(=O)C2CCN(c3nc4ccc(C)cc4[nH]3)CC2)cc1`, the inhibition worked out at 16.8%.

Turning to `CCn1c2c(c(=O)n3ncc(C(=O)Nc4cccc(Cl)c4C)c13)CN(Cc1ccc(OC)cc1)CC2`, the inhibition was determined as 5.07%. With `C=C(C)CSc1nc2sc3c(c2c(=O)n1CCCC)CCCC3`, the inhibition is -2.27%. With `CCOC(=O)c1c(C)[nH]c(C)c1S(=O)(=O)N1CCC(C(=O)NCc2ccc(C)cc2)CC1`, the inhibition is 5.47%. For the compound `CCCC(O)c1nc2ccccc2n1CCCCOc1ccc(OC)cc1` (stereo unspecified), the inhibition is 24.9%.

Consider `Cc1cc(C)cc(NC(=O)CSc2nncn3c2cc2occc23)c1`, for which the inhibition is -15.4%. As to `COc1cc(CNCCCN2CCOCC2)cc(Br)c1OCC(=O)N1CCCCC1`, the inhibition is active: 32.3%.

As to `COc1ccc(CCNC(=O)CCCCn2c(=O)c3ccccc3n(CC(=O)Nc3ccccc3C)c2=O)cc1OC`, the inhibition is -15.7%. As for `CCCOc1cccc(C(=O)Nc2ccc(-c3nc4ccccc4s3)c(Cl)c2)c1`, the figure is 2.03%; as for `COc1ccc(S(=O)(=O)c2cn(Cc3ccccc3)c3cc(N4CCCC4)c(F)cc3c2=O)cc1`, 4.17%.

As to `CCN1C(C(=O)c2ccccc2)=C(OC(=O)C(C)C)c2ccccc2S1(=O)=O`, the inhibition was -15.3%. As for `CCc1ccccc1NC(=O)Cn1c(=O)nc(-c2ccccc2)c2ccccc21`, the inhibition stood at 10.5%.

As to `COc1ccc(CCNC(=O)CCn2c(=O)c3ccccc3n(Cc3ccc(Cl)cc3)c2=O)cc1OC`, the inhibition stood at 3.68%.

For `CCn1c(=O)c2cc(C(=O)NC3CCCCCC3)sc2c2ccccc21`, the inhibition is -0.927%. Take `O=c1oc2c(CN3CCOCC3)c(O)ccc2cc1-c1ccc(Cl)cc1`: the inhibition was determined as 5.22%. In the case of `CCOC(=O)c1sc(NC(=O)c2nc3ncccn3n2)c(C(=O)OC)c1C` it was -3.9%. With `O=S(=O)(NCc1ccccc1)c1ccc(-c2cnc(C3CC3)o2)cc1`, the inhibition is -20.9%. `CCc1ccc(CSc2nc(-c3ccc(OC)cc3)nc3c2Cc2c(CO)cnc(C)c2O3)cc1`: the inhibition is -7.91%. With `COc1ccc(CNC(=O)CN(c2ccccc2OC)S(=O)(=O)c2ccc(C)cc2)cc1`, the inhibition is -0.548%. As to `CC(NC(=O)c1ccc2c(c1)N(Cc1ccc(Cl)cc1)C(=O)c1ccccc1S2(=O)=O)c1ccccc1` (stereo unspecified), the inhibition was -4.06%. For `CC1CCCCN1C(=O)/C=C/c1ccccc1[N+](=O)[O-]` (stereo unspecified), the inhibition was active: 30.1%. With `CCOc1ccc(CCNC(=O)Cn2nc(CC)n3c(cc4sc(CC)cc43)c2=O)cc1OCC`, the inhibition stood at 2.53%. In the case of `CCCCCn1c(=N)c(S(=O)(=O)c2ccccc2)cc2c(=O)n3ccccc3nc21`, the inhibition is -0.109%. As to `COc1ccccc1CNC(=O)Cc1csc2nc(-c3ccc(Cl)cc3)cn12`, the inhibition was -7.11%.

Regarding `Cc1sc(NC(=O)c2ccco2)c(CN2CCN(c3ccc(F)cc3)CC2)c1C`, the inhibition was active: 33%. In the case of `CCOc1cc(CNC(=O)c2ccc(C)c(NC(=O)c3nsc4ccccc34)c2)ccc1OC` it was -3.71%. Take `CCc1ccc(N2C(=O)CC(c3cc(OC)ccc3OC)C3=C2COC3=O)cc1` (stereo unspecified): the inhibition was -11.3%. Turning to `COc1ccc(CNC(=O)CSc2nc3ccsc3c(=O)n2Cc2ccccc2Cl)cc1`, the inhibition is -26.8%.

On to `Cc1cc2oc(C(=O)Nc3sc4c(c3C(=O)NCC3CCCO3)CCC4)cc(=O)c2cc1C` (stereo unspecified), for which the inhibition was -9.92%. As for `O=C(Nc1ccc2oc(-c3cccnc3)nc2c1)c1ccc(-c2ccc(Cl)cc2)o1`, the figure is -4.87%; as for `Cc1ccc(NC(=O)Cn2ncn3c(cc4ccccc43)c2=O)c(C)c1`, -9.25%.

As to `CCOc1ccc(C2CC(=O)n3nc(-c4ccc(C)cc4)nc3S2)cc1` (stereo unspecified), the inhibition worked out at 2.34%. `O=C(NC1CCCCC1)c1ccc(CS(=O)(=O)Cc2ccccc2F)o1`: the inhibition was active: 43.8%.
